# Measured values reported in PubChem BioAssay AID485294 (National Center for Advancing Translational Sciences (NCATS), 2010).
# Among all 370,000 compounds or so, about 150 (0.041%) were called active. The inconclusive results got no clear call from the source; some entries with a clear call stand among them for comparison. Calls come from the whole dose curve; as a rule, active = well fitted inhibition curve with a large enough effect; inconclusive = small, poorly fitted or top-dose-only effect; inactive = flat fitted curve, though single readings scatter. Potencies of inconclusive entries are left out as doubtful fits.
# Target: Beta-lactamase (Escherichia coli (strain K12)) (UniProt P00811)
# Test: qHTS Inhibitors of AmpC Beta-Lactamase (assay with detergent); note: nearly all actives have a fitted effect of over 25% in size;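 for activity change, negative = inhibition: 0% = no-compound wells and -100% = no-enzyme wells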
# Details: AmpC hydrolysis of nitrocefin, absorbance 480 nm, 0.01% Triton; activity change, negative = inhibition: at 114 µM (top of the series)
# In short: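 20 mM phosphate pH 7.0 + 0.01% (detergent screen) or 0.0001% Triton X-100; 5.3 nM AmpC reagent; cpd preinc 15 min RT; nitrocefin (800 uM stock) to start; A480 q20 s × 4 min; Activity was normalised to no-enzyme and no-compound control wells.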
# Potency is the fitted concentration of half-maximal effect; tags give direction and shape of the fitted curve.
# Chain of UniProt P00811 (P00811 whole entry, looked up): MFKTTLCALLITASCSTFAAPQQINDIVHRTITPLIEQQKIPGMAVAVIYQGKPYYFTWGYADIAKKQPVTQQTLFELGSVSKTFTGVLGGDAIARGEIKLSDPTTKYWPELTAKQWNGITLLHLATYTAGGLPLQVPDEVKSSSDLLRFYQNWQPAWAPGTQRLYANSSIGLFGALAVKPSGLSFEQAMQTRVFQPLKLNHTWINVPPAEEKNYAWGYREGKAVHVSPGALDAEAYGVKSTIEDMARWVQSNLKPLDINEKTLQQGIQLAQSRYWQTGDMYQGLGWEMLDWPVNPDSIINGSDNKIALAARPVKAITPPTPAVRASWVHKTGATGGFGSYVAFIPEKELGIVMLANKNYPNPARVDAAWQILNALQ
SMILES,Potency,"activity change, negative = inhibition"
CCC(=O)c1ccc(OCC(O)CN2C(=O)NC(C)(C)C2=O)cc1 (stereo unspecified),"inconclusive [inhibitor, full curve, poor fit]",–
COCC(=O)N1CCC(Oc2ccc(C(=O)N3CCN(C)C[C@@H]3C(C)C)cc2)CC1,"inconclusive [inhibitor, full curve, poor fit]",–
C=C(C)Cn1c(CCCNC(=O)C(C)(C)C)nc2ccccc21,"inconclusive [inhibitor, partial curve]",–
O=C(NCc1ccccc1)c1ccc(OCC2CCCO2)cc1 (stereo unspecified),"inconclusive [inhibitor, full curve, poor fit]",–
CCOc1ccccc1N(C)C(=O)C1CCN(S(=O)(=O)c2cccc3nonc23)CC1,"inconclusive [inhibitor, full curve, poor fit]",–
C=CCn1c(C)cc(C(=O)COc2ncnc3sccc23)c1C,–,inactive: -12.2%
COc1ccc(NC(=O)C2CCCN(S(C)(=O)=O)C2)cc1 (stereo unspecified),"inconclusive [inhibitor, full curve, poor fit]",–
Cc1ccc2c(c1)[nH]c1c(=O)n(CCCN3CCOCC3)cnc12,"inconclusive [inhibitor, full curve, poor fit]",–
NC(=O)c1sc2nc3c(c(-c4ccco4)c2c1N)CCCC3,"inconclusive [inhibitor, single point]",–
Cn1ccnc1CN1CCCCC1C(=O)Nc1ccc(Oc2cccnc2)cc1 (stereo unspecified),"inconclusive [inhibitor, full curve, poor fit]",–
COc1ccccc1-c1ccc2nnc(SC)n2n1,"inconclusive [inhibitor, full curve, poor fit]",–
Cc1nn(C(CC(=O)O)C(=O)O)c(C)c1Br (stereo unspecified),"inconclusive [inhibitor, single point]",–
CCOC(=O)c1c(NC(=S)Nc2ccc(OCC)cc2)sc2c1CCN(C)C2,–,inactive: 4.03%
CN(C)C(CNC(=O)c1ccc2nc[nH]c2c1)c1ccccc1 (stereo unspecified),"inconclusive [inhibitor, partial curve]",–
CCC1(C)Cc2c(sc3nc(SC)[nH]c(=S)c23)CO1 (stereo unspecified),"inconclusive [inhibitor, full curve, poor fit]",–
O=C(NCc1ccco1)c1ccc(Cn2c(=O)c3ccccc3n(Cc3cccc(Cl)c3)c2=O)cc1,"inconclusive [inhibitor, full curve, poor fit]",–
CCCC/C=C/C(NC(=O)CCc1ccccc1)c1ccccc1 (stereo unspecified),"inconclusive [inhibitor, full curve, poor fit]",–
CCOc1ccc(NC(=O)CN(C)C(=O)c2cc(C)on2)cc1OCC,"inconclusive [inhibitor, full curve, poor fit]",–
C=CCN=C1S/C(=C/c2cccc([N+](=O)[O-])c2)C(=O)N1CC=C,–,inactive: 1.12%
CN1CCN(S(=O)(=O)c2ccc(N3CCN(c4ccc(O)cc4)CC3)c([N+](=O)[O-])c2)CC1,"inconclusive [inhibitor, full curve]",–
Cc1nnc(SCC(=O)c2cc(C)n(-c3ccc4c(c3)OCO4)c2C)s1,"inconclusive [inhibitor, partial curve]",–
CN(C)/C=C(/C(=O)c1ccccc1)n1cncn1,"inconclusive [inhibitor, single point]",–

SMILES,Potency,"activity change, negative = inhibition"
Cc1cccc(C(=O)NNC(=O)c2c(O)c3ccccc3n(C)c2=O)c1,–,inactive: -4.17%
CC(C)Oc1ccc(C(=O)NCc2ccco2)cc1,"inconclusive [inhibitor, full curve, poor fit]",–
CCOC(=O)c1c(C)n(-c2ccccc2)c2ccc(O)c(CN(C)C)c12,–,inactive: -5.2%
Cc1nn(-c2ccccc2)c(C)c1/C=C/C(=O)OC(C)C(=O)Nc1ncc(Cl)cc1Cl (stereo unspecified),–,inactive: -21.3%
CN(CC1CCCN(CCc2ccc(F)cc2)C1)C(=O)CCC(F)(F)F (stereo unspecified),"inconclusive [inhibitor, full curve, poor fit]",–
CCOC(=O)c1cnc2c(C)c(C)ccc2c1Nc1ccc(S(=O)(=O)Nc2ncccn2)cc1,"inconclusive [inhibitor, partial curve, poor fit]",–
Cn1c(=O)c2c(ncn2CC(=O)N2CCN(S(=O)(=O)c3ccc(Cl)cc3)CC2)n(C)c1=O,"inconclusive [inhibitor, full curve, poor fit]",–
Cc1cc(C)nc(SCc2ccc(C(=O)O)o2)n1,"inconclusive [inhibitor, full curve, poor fit]",–
CCOc1ccccc1CNC(=O)C1CCN(C(=O)N2CC(CC)Oc3ccc(C)cc32)CC1 (stereo unspecified),–,inactive: 25.4%
COc1cc(C(=O)NC2CCCc3ccccc32)ccc1OCC(=O)Nc1ccc(F)cc1 (stereo unspecified),–,inactive: 1.39%
CCCOc1cc(N)ccc1C(=O)OCCN(CC)CC,"inconclusive [inhibitor, full curve, poor fit]",–
COc1ccc(-c2cc3onc(-c4c(Cl)cccc4Cl)c3c(=O)n2C)cc1,"inconclusive [inhibitor, full curve, poor fit]",–
CCOC(=O)CC(C(=O)OCC)P(=O)(c1ccccc1)c1ccccc1 (stereo unspecified),"inconclusive [inhibitor, full curve, poor fit]",–
COC(=O)c1ccc(CN2C(=O)c3ccccc3C2=O)cc1,"inconclusive [inhibitor, single point]",–
COC(=O)c1cccc(N/C=C(\[N+](=O)[O-])S(=O)(=O)c2ccccc2)c1,–,inactive: -9.15%
COc1ccccc1CC(=O)Nc1ccccc1C(=O)O,"inconclusive [inhibitor, single point]",–
O=[N+]([O-])c1ccc(C(O)C[n+]2ccccc2)cc1 (stereo unspecified),"inconclusive [inhibitor, full curve, poor fit]",–
CCCCN(C(=O)Cc1ccc2c(c1)OCCO2)c1c(N)n(CC(C)C)c(=O)[nH]c1=O,"inconclusive [inhibitor, full curve, poor fit]",–
O=C(NCCN1CCOCC1)c1cccn2c(=O)c3c4c(sc3nc12)CCCC4,–,inactive: -1.31%
COc1ccccc1N1CCN(C(=O)c2nc(SC)ncc2Cl)CC1,–,inactive: -3.01%
COc1ccc(S(=O)(=O)c2ccccc2)cc1NC(=O)c1c(F)cccc1F,"inconclusive [inhibitor, partial curve, poor fit]",–
CCN(CC)C(=O)c1ccc2c(c1)N(Cc1ccccc1)C(=O)CS2=O (stereo unspecified),"inconclusive [inhibitor, full curve, poor fit]",–

SMILES,Potency,"activity change, negative = inhibition"
Nc1ccc(C(=O)OCC(=O)NC2CCCc3ccccc32)cc1[N+](=O)[O-] (stereo unspecified),"inconclusive [inhibitor, full curve, poor fit]",–
CCCC[C@]12Cc3cc(C#N)ccc3C(O1)c1c(c3ccccc3oc1=O)O2,"inconclusive [inhibitor, full curve]",–
CCOC(=O)N1CCc2c(sc(NCc3sccc3C)c2C(=O)Nc2ccc(OC)cc2OC)C1,–,inactive: 11.1%
Cc1cccc(-c2nc(C#N)c(N3CCCCCC3)o2)c1,"inconclusive [inhibitor, single point]",–
CC(C)C[C@H](NC(=O)[C@H](Cc1ccccc1)n1c(=O)[nH]c2ccccc2c1=O)C(=O)N1CCC[C@H]1C(=O)O,"inconclusive [inhibitor, full curve]",–
CC(=O)NC(c1ccco1)c1cc(Cl)c2ccc(Cl)nc2c1O (stereo unspecified),"inconclusive [inhibitor, full curve, poor fit]",–
CC1CCN(C(=O)COC(=O)C2CCN(S(=O)(=O)c3ccc4c(c3)OCCO4)CC2)CC1,"inconclusive [inhibitor, full curve, poor fit]",–
Cc1cccc(OCc2nnc(SCC(=O)Nc3sc(C)c(C)c3C#N)n2C)c1,"inconclusive [inhibitor, full curve, poor fit]",–
CSCCC(NC(=O)COc1ccccc1)C(=O)N1CCCC(C)C1 (stereo unspecified),–,inactive: 1.51%
Fc1cc2nc(-c3ccncc3)[nH]c2cc1F,–,inactive: 0.604%
CCOC(=O)N1CCN(C(=O)CNS(=O)(=O)c2cccs2)CC1,"inconclusive [inhibitor, full curve, poor fit]",–
CSCC[C@H](NC(=O)Nc1ccc(C)cc1)C(=O)O,"inconclusive [inhibitor, full curve, poor fit]",–
CCSc1nnc(NC(=O)CSc2nc3c(c(=O)n2CC)SC(C)C3)s1 (stereo unspecified),"inconclusive [inhibitor, full curve]",–
O=C(c1cn(Cc2ccccc2)nc1-c1cccnc1)N1CCN(Cc2ccccc2)CC1,–,inactive: 0.845%
Cc1c(C(=O)NCC(c2ccc(Cl)cc2)N2CCOCC2)oc2ccccc12 (stereo unspecified),–,inactive: 18.4%
COc1ccc(Cl)cc1NC(=O)CSc1nnc(C2CC2)n1N,"inconclusive [inhibitor, full curve]",–
CC(C)C(c1nnnn1Cc1ccc(F)cc1)N1CCN(Cc2ccc3c(c2)OCO3)CC1 (stereo unspecified),"inconclusive [inhibitor, partial curve, poor fit]",–
O=C(COc1ccccc1N1C(=O)c2ccccc2C1=O)c1ccc(Cl)cc1,"inconclusive [inhibitor, full curve]",–
CCN(CC)S(=O)(=O)c1ccc(-c2nnc(SCC(=O)N3CCOCC3)o2)cc1,–,inactive: -14.3%
CCCCC(=O)Nc1cccc(NC(=O)c2ccc3c(c2)OCO3)c1,–,inactive: 2.98%
Cc1cc(C(=O)COC(=O)c2cc(O)c3ccccc3c2O)c(C)n1CC1CCCO1 (stereo unspecified),–,inactive: -5.54%
COc1cc(/C=C/C(=O)O)cc(S(=O)(=O)Nc2ccc3[nH]c(=O)[nH]c3c2)c1OC,"inconclusive [inhibitor, full curve, poor fit]",–
